From PubChem BioAssay AID1963576 (National Center for Advancing Translational Sciences (NCATS), 2024)
The campaign covered roughly 46,000 compounds. About 60 (0.1%) were called active. Inconclusive results (about 3%) are left out. The call rests on the fitted dose curve; in most records, active means well fitted inhibition curve with a large enough effect; inconclusive means small, poorly fitted or top-dose-only effect; inactive means no such curve, though single readings can be large or run the other way. The list shows a part of the results.

Assay: Primary qHTS assay for Inhibitors of ovarian cancer metastasis using an organotypic tumor microenvironment (TME) model. Further: nearly all actives have a fitted effect of over 65% in size.
Settings: SKOV3ip1-GFP adhesion/invasion on 3D omental model, fluorescence; series mostly up to 45.8 µM; activity change, negative = inhibition: at the top concentration
From the text: PI: Ernst Lengyel MD., Ph.D. Department of Obstetrics and Gynecology, Section of Gynecologic Oncology University of Chicago Medicine, Chicago, Illinois. The tumor microenvironment (TME) is a key determinant of metastatic efficiency. We performed a quantitative high-throughput screen (qHTS) of diverse medicinal chemistry tractable scaffolds (44,420 compounds) and pharmacologically active small molecules (386 compounds) using a layered organotypic, robust assay representing the ovarian cancer metastatic TME. This 3D model contains primary human mesothelial cells, fibroblasts, and extracellular matrix, to which fluorescently labeled ovarian cancer cells are added. Initially, 100 compounds inhibiting ovarian cancer adhesion/invasion to the 3D model in a dose-dependent manner were identified. Of those, eight compounds were confirmed active in five high-grade serous ovarian cancer cell lines and were further validated in secondary in vitro and in vivo biological assays. […] Specifically, NCGC00117362 and PP-121 inhibited ovarian cancer adhesion, invasion, and proliferation, whereas milciclib inhibited ovarian cancer invasion and proliferation. […] To evaluate the clinical potential of NCGC00117362, structure - activity relationship studies were performed. […] The three compounds identified have promise as therapeutics for prevention and treatment of ovarian cancer metastasis.
PROTOCOL TABLE (as described by Inglese J, Shamu CE and Guy RK. 2007) SEQUENCE No. (e.g., 1, 2, 3, etc.); […] (e.g., Cells, Incubation, Reagent, etc.); VALUE; DESCRIPTION. 1; Cells; 4 uL; primary human omental fibroblast, black, clear bottom, low base, 1536-well Aurora assay plate. 2; Incubation; 48 hr; 37C. 3; Cells; 3 uL; 1,200 SKOV3ip1-GFP cells. 4; Compounds; 23nL; acoustic dispenser. 5; Incubation; 2 hr; room temperature. 6; Incubation; 16 hr; 37C. 7; Wash; 5 uL; 1x PBS. 8; Fixing; 5 uL; 4% paraformaldehyde (PFA). 9; Incubation; 15 min; room temperature 10; Wash, 5 uL; 1x PBS. 11; Detection; Fluorescence, excitation filter 488 nm, emission filter 509 nm. NOTES (numbers refer to Sequence numbers above) 1. For the 1,536-well format, 40 primary human omental fibroblasts and 400 mesothelial cells were seeded with 0.02 µg fibronectin and 0.02 µg collagen type I in 4 µL of growth media (2.3 mm2; Supplementary Fig. S1A). 2. Assay plates were incubated for 48 hours at 37 C. 3. After incubation, 1,200 SKOV3ip1-GFP were seeded in 3 µL of serum-free media (growth media minus FBS) on top of primary human omental cells. 4. Compounds or controls were added to each well immediately after the addition of the cancer cells. Compounds were screened in four doses (0.36-46 µmol/L), and the plates contained the positive control (Tomatine) in eight doses (0.035-75 µmol/L) and DMSO (equal volume controls) 5 - 6. The plates were incubated at room temperature for 2 hours and then at 37 degrees C for 16 hours. 7 - 10. Following incubation, the media were aspirated and each well washed with PBS (5 µL) and then fixed with 4% paraformaldehyde (PFA; 5 µL). After 15 minutes, the PFA solution was aspirated, PBS (5 µL) was added. 11. The number of GFP-labeled cells analyzed using a fluorescent cytometer TTP LabTech Acumen eX3 using 488 nm excitation filter and 509 nm emission filter. Data was normalized to the DMSO treated for negative and Tomatine treated wells for positive control. REFERENCES: Inglese J, Shamu CE and Guy RK, Reporting data from high throughput screening of small molecule libraries, Nature Chemical Biology, 2007, 3(8): 438-441. doi.org/10.1038/nchembio0807-438. Yasgar A, Shinn P, Jadhav A, Auld DS, Michael S, Zheng W, Austin CP, Inglese J and Simeonov A, Compound Management for Quantitative High-Throughput Screening. J. Assoc. Lab. Auto., 2008, 13: 79-89. doi: 10.1016/j.jala.2007.12.004.

SMILES | outcome | activity change, negative = inhibition
COC(=O)c1ccccc1NC(=O)c1cccn(Cc2cccc(Cl)c2)c1=O | inactive | –
Clc1ccccc1C(c1ccccc1)(c1ccccc1)n1cccn1 | – | inactive: 2.31%
O=C1CC(c2ccc(C(F)(F)F)cc2)c2c(c3ccccc3oc2=O)O1 (stereo not given) | – | inactive: 6.17%
Cc1cccc(Cn2cccc(C(=O)Nc3nnc(C)s3)c2=O)c1 | – | inactive: -0.432%
Cc1cc(SCc2sc(-c3ccc(C(F)(F)F)c(F)c3)nc2C)ccc1OCC(=O)O | – | inactive: 5.73%
O=C(Nc1ccc2c(c1)OCCO2)c1cccn(Cc2ccccc2)c1=O | – | inactive: -12.8%
Nc1c(C(=O)Nc2ccc(F)c(Cl)c2)sc2nc3c(cc12)N1CCC3CC1 | – | inactive: -13%
O=C(Oc1ccc([N+](=O)[O-])cc1)N1CCC(C(O)(c2ccc3c(c2)OCO3)c2ccc3c(c2)OCO3)CC1 | – | inactive: -0.897%
CN1C(=O)COc2c(C(=O)NC3CN4CCC3CC4)cc(Cl)cc21 (stereo not given) | – | inactive: 0.548%
O=C(Nc1ccc(F)c(Cl)c1)N(Cc1ccc2c(c1)OCO2)C1CCN(Cc2ccccc2)CC1 | – | inactive: -16.1%
CCOc1ccc2nc(NC(=O)c3cccn(Cc4ccc(C)cc4)c3=O)sc2c1 | – | inactive: -1.15%
O=C(Nc1ccccc1)N(Cc1ccc2c(c1)OCO2)C1CCN(Cc2ccccc2)CC1 | – | inactive: -7.76%
O=C(Nc1ccon1)c1cccn(Cc2cccc([N+](=O)[O-])c2)c1=O | – | inactive: -2.12%
O=C(Nc1ccc2c(c1)OCO2)c1cccn(Cc2ccccc2)c1=O | – | inactive: 1.59%
O=C1CCC[C@@H]2[C@H]3CCCN4CCC[C@@H](CN12)[C@@H]34 | – | inactive: -3.45%
Cc1ccc(OCC(=O)Nc2ccc(Cl)cc2C(=O)c2ccccc2)c(Br)c1 | – | inactive: 5.57%
COc1ccc(C(=O)c2c(C)n(CCN3CCOCC3)c3cc(I)ccc23)cc1 | – | inactive: 21.4%
O=P1(NCCCl)OCCCN1CCCl (stereo not given) | – | inactive: -14.6%
CCc1ccc(-n2nc(C)c3c2NC(=O)CSC3c2ccccc2C)cc1 (stereo not given) | inactive | –
COc1ccc(NC(=O)CN2C(=O)C(C)N=C(c3ccccc3)c3ccccc32)cc1OC (stereo not given) | – | inactive: 6.99%
Cc1ccc(Cn2cccc(C(=O)Nc3nc4ccc(C)cc4s3)c2=O)cc1 | – | inactive: -1.39%
Cc1ccc(NC(=O)CN2C(=O)CN=C(c3ccccc3)c3ccccc32)cc1Cl | inactive | –

SMILES | outcome | activity change, negative = inhibition
CC(=O)c1cccc(NC(=O)c2cccn(Cc3cccc(C)c3)c2=O)c1 | inactive | –
CCSc1nnc(NC(=O)c2cccn(Cc3ccccc3Cl)c2=O)s1 | – | inactive: 27.4%
O=S(=O)(F)Cc1ccccc1 | – | inactive: -2.68%
CCOc1ccccc1NC(=O)c1cccn(Cc2ccccc2C)c1=O | inactive | –
N#Cc1cc2c(nc1SCC(=O)Nc1cccc(C(F)(F)F)c1)C1CCN2CC1 | inactive | –
COc1ccc(C(c2c(O)c3ccccc3oc2=O)c2c(C)n(C)n(-c3ccccc3)c2=O)cc1 (stereo not given) | – | inactive: 3.07%
Cc1cccc(OCC(=O)N2CCN(Cc3cc(=O)n4nc(-c5ccccc5Cl)sc4n3)CC2)c1 | – | inactive: 11.2%
Cc1ccc(-n2c(/C=C\c3ccc(F)c(F)c3)nc3ccccc3c2=O)c(C)c1 | – | inactive: -0.841%
Cc1ccccc1-c1nn2c(=O)cc(CN3CCN(C(=O)COc4ccccc4Cl)CC3)nc2s1 | – | inactive: -5.85%
O=C(COc1ccc(Br)cc1)Nc1ccc(Cl)cc1C(=O)c1ccccc1 | – | inactive: 7.11%
Cc1cc(C)cc(NC(=O)CN2C(=O)CN=C(c3ccccc3)c3cc(Cl)ccc32)c1 | inactive | –
COc1ccc2c(c1)CN(C)CC2c1ccc(Cl)c(Cl)c1 (stereo not given) | – | inactive: -5.44%
CC(C)C[C@H](CN)CC(=O)O | – | inactive: 0.0992%
C1=C2CCCN[C@H]2[C@@H]2C[C@H]1[C@@H]1CCCCN1C2 | – | inactive: -22.8%
Cc1ccc(OCC(=O)N2CCN(Cc3ccc(F)cc3)CC2)cc1 | – | inactive: -2.29%
Cc1ccc(C(C)(C)C)c(OCC(=O)Nc2ccc(Cl)cc2C(=O)c2ccccc2)c1 | – | inactive: 9.71%
COc1ccc2c(c1)[C@]13CCCCC1C(C2)N(C)CC3 (stereo not given in full) | – | inactive: -6.03%
COc1cccc(-n2c(/C=C\c3ccc(Cl)cc3)nc3ccccc3c2=O)c1 | inactive | –
c1cnc2c(c1)ncn2C1CCNCC1 | – | inactive: 0.329%
CCC12CN3CC(CC)(CN(C1)C3c1c(C)[nH]c(=O)[nH]c1=O)C2=O (stereo not given) | – | inactive: 1.06%
COc1cc(OC)cc(C(=O)Nc2ccc(Cl)cc2C(=O)c2ccccc2Cl)c1 | – | inactive: 3.13%
O=c1c2ccccc2nc(/C=C/c2cccc3ccccc23)n1-c1ccc(Cl)cc1 | – | inactive: 48.8%

SMILES | outcome | activity change, negative = inhibition
CC(=O)OCC1=C(C(=O)O)N2C(=O)[C@@H](N)[C@@H]2SC1 | – | inactive: 0.22%
Cc1ccc2nc(NC(=O)c3cccn(Cc4ccccc4F)c3=O)sc2c1 | inactive | –
Cc1ccc2c(=O)n(-c3cccc(Cl)c3)c(=O)[nH]c2c1 | – | inactive: -8.5%
O=C(Nc1ccc(Br)cc1C(=O)c1ccccc1Cl)c1ccc(Br)cc1 | – | inactive: -3.12%
Cc1ccccc1-c1nc(CN2C(=O)CN=C(c3ccccc3)c3ccccc32)c(C)o1 | – | inactive: 1.3%
CN(C)NC(=O)CCC(=O)O | – | inactive: -0.334%
COc1ccccc1-c1nn2c(=O)cc(CN3CCN(C(=O)COc4ccccc4Cl)CC3)nc2s1 | – | inactive: 1.02%
CCc1ccc(-n2nc(C)c3c2NC(=O)CSC3c2ccc(C(=O)OC)cc2)cc1 (stereo not given) | – | inactive: 4.05%
CCN(CC)C(=O)c1ccc(NC(=O)COc2ccc(-c3nn(C)c(=O)c4ccccc34)cc2)cc1 | inactive | –
COc1cc2[nH]c(=O)n(-c3ccc(C)cc3)c(=O)c2cc1OC | inactive | –
Cc1ccc(-c2nn3c(=O)cc(CN4CCN(C(=O)COc5ccc(C)c(C)c5)CC4)nc3s2)cc1 | – | inactive: 4.46%
COc1ccc(Br)cc1C1SCC(=O)Nc2c1c(C)nn2-c1ccccc1C (stereo not given) | – | inactive: 2.54%
CCCC1=Nc2cc(C(=O)NCCCN(CC)CC)ccc2Sc2ccccc21 | – | inactive: 13.7%
COC(=O)[C@@H](N)CCCN=C(N)N[N+](=O)[O-] | – | inactive: 9.36%
CCCC12CN3CC(C)(CN(C1)C3c1c(C)[nH]c(=O)[nH]c1=O)C2=O (stereo not given) | – | inactive: -16.7%
COc1cccc(NC(=O)c2cccn(Cc3ccccc3C)c2=O)c1 | – | inactive: -17%
COc1ccccc1C1SCC(=O)Nc2c1c(C)nn2-c1cccc(C)c1 (stereo not given) | – | inactive: 2.23%
Cc1ccc(Cn2cccc(C(=O)Nc3ccc4c(c3)OCCO4)c2=O)cc1 | – | inactive: -6.56%
Cc1ccc(-c2nc(CN3C(=O)CN=C(c4ccccc4)c4ccccc43)c(C)o2)cc1 | – | inactive: -1.48%
CCN(CC)C(=O)c1ccc(NC(=O)c2ccc(-c3nn(C)c(=O)c4ccccc34)cc2)cc1 | – | inactive: 20.5%
Cc1ccccc1-n1nc(C)c2c1NC(=O)CSC2c1ccc(Cl)cc1 (stereo not given) | – | inactive: -0.637%
